Data as given in patent US20240067711A1 (MEDYTOX, published 2024).

B1: Aflibercept AAA0289 (Fc fusion)
chain: SDTGRPFVEMYSEIPEIIHMTEGRELVIPCRVTSPNITVTLKKFPLDTLIPDGKRIIWDSRKGFIISNATYKEIGLLTCEATVNGHLYKTNYLTHRQTNTIIDVVLSPSHGIELSVGEKLVLNCTARTELNVGIDFNWEYPSSKHQHKKLVNRDLKTQSGSEMKKFLSTLTIDGVTRSDQGLYTCAASSGLMTKKNSTFVRVHEK[here human IgG1 Fc without letters]
notes: also called AAA0289 monomer
B2: Aflibercept hexamer AAA0308 (Fc fusion)
chain: SDTGRPFVEMYSEIPEIIHMTEGRELVIPCRVTSPNITVTLKKFPLDTLIPDGKRIIWDSRKGFIISNATYKEIGLLTCEATVNGHLYKTNYLTHRQTNTIIDVVLSPSHGIELSVGEKLVLNCTARTELNVGIDFNWEYPSSKHQHKKLVNRDLKTQSGSEMKKFLSTLTIDGVTRSDQGLYTCAASSGLMTKKNSTFVRVHEK[here human IgG1 Fc with changes and a few adjoining residues without letters]

Columns and labels:
[1] = biological target: T1, human VEGF (hVEGF), isoform not stated (human, UniProt P15692-4 27-191, limits assumed); assay: ELISA on coated hVEGF (500 ng/ml), detection with anti-hIgG-Fc HRP, A450
T1 sequence (looked up): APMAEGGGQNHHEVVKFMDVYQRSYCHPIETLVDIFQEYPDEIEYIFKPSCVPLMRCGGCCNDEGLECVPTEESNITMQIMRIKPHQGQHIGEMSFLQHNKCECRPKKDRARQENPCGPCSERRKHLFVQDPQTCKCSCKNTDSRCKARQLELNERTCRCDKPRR
Method: (§1) ELISA was performed to confirm the binding ability to VEGF. First, 100 μl of hVEGF was added to an immunoplate at a concentration of 500 ng/ml and caused to react at room temperature for 1 hour. 2% skim milk was dissolved in PBST, and then, 200 μl thereof was added onto the VEGF-coated wells and the reaction was caused to occur at room temperature for 2 hours. After the reaction, the well was washed three times using 300 μl of PBST, and then, Hz2, AAA0289, AAA0308, AAA0589, AAA0592, and AAA0600, which were purified above, were diluted starting from at a concentration of 100 ng/ml by two-fold to make a total of 11 samples. The samples were placed on the VEGF-coated well and the reaction was caused to occur at room temperature for 20 minutes. After the reaction, the well was washed three times using 300 μl of PBST, and then, anti-hIgG-Fc HRP (1:3000, Thermo) was added thereto at 100 μl/well and then reacted for 30 minutes. Then, the well was washed three times as described above, and the TMB (BioFx company) solution was added thereto at 100 μl/well to develop color at room temperature for 5 minutes. After the color development, 2N sulfuric acid was added at 50 μl/well to stop the color development, and the absorbance was measured at 450 nm, and results are shown in FIGS. 4A and 4B.

[2] = biological target: T1, human VEGF (hVEGF), isoform not stated; assay: as above; remark: listed apart in the source
Method: as §1

[3] = biological target: T2, recombinant human VEGF165 (human, UniProt P15692-4 27-191); assay: Octet red96E BLI, human VEGF165 amine-coupled on AR2G sensor, hexamer as analyte, 30° C.
T2 construct: Bought protein from two vendors, treated as one molecule; Species is stated for the Octet material; the R&D material is printed only as VEGF165
T2 sequence (looked up): T1 sequence (looked up)
Method: Affinity for VEGF was determined as follows. Octet red96E was used, and human VEGF immobilized on the biosensor AR2G was interacted with AAA0308, AAA0589, AAA0592, and AAA0600 used as analytes, and binding and dissociation values thereof were compared and measured. As human VEGF, recombinant human VEGF165 (Sinobiological company) was used, and VEGF was immobilized on the AR2G sensor chip by an amine coupling method. At this time, the amount of VEGF used was 10 μg/ml, and the degree of coating was confirmed using a wavelength of 5 nm.
During measurement, the rotation speed was set to 100, and the temperature was measured at 30° C.
The concentration of the sample was adjusted using a kinetic buffer (Molecular Device Co.). The antibody solution of each concentration was used as a binding phase for 5 minutes, and then switched to a kinetic buffer to form a dissociation phase for 30 minutes.

Binder	EC50 (read off the curve) [1] [pM]	EC50 (read off the curve) [2] [pM]	Kd [3] [pM]	koff [3] [s⁻¹]
B1	~30	~30		
B2	~20		< 1	< 1e-07

Like-named read-outs stand apart in the source and are kept apart here.
